Reference: the supplement of paper PMC10126150
Sequences with one replicate were seen in a single cluster, so their values are uncertain.

Test system: ATP
Assay: switch fluorescence ratio, 500 uM ATP over buffer (Cy3 cluster intensity, sum of 5 cycles each) (fold (ratio)); higher = stronger signal-on switching upon ATP binding; sequences stand for … in TCGTCGGCAGCGTCAGATGTGTATAAGAGACAGTTTTTTTTTTTTTTTTTTTTTTTTT…TC
Settings: aptamer strand: ATP DNA aptamer (quencher-CACCTGGGGGAGTATTGCGGAGGAAGG + anchor), 100 nM annealed; ATP concentration: 500 uM; one replicate
How it was run: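 Cy3-labelled switching-strand clusters on a modified Illumina MiSeq flow-cell were annealed to 100 nM quencher-labelled ATP aptamer and imaged first in selection buffer, then after 15 min with 500 uM ATP at 22 °C. NaOH stripping and re-annealing separated each of five buffer/ATP cycles, and clusters outside 100-1000 RFU were excluded. The fluorescence ratio sums target-cycle Cy3 intensity over buffer-cycle Cy3 intensity per cluster and averages it per switch-domain sequence.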
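Further: ATP exposure 15 min at 22 °C before imaging.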

Sequence | switch fluorescence ratio
CGGGTGCGAA | 1.01
CTATGAGTG | 0.961
ACTGATCCCC | 1.03
AAAGGCCCAA | 0.955
TGGGGACCAA | 0.996
GGGCAGTTCA | 1.03
TCAAGCGCCG | 1.01
TTGTGCGTGT | 1
TCAGTAGTGT | 1.07
GTGTTCCAAG | 0.985
TGTGGCATGG | 0.995
TGAGAGCACT | 1.03
TCGTATTTCT | 0.993
GGAGTCGATC | 1.09
AAGGTAAATC | 1.01
AGCTTTGTTA | 0.977
TCTGCGAGGG | 1.2
TGTGTACGTA | 1.1
AAGTTAATTG | 0.988
GAGCGCACTT | 1.36
GGCATTATGT | 1.03
GCGGACTGGG | 1.02
TCATTTCGCA | 1.33
GTTTAAAGAG | 0.982
TGCTAGGCT | 1.06
AGGACATAAA | 1.4

Sequence | switch fluorescence ratio
TCCTACTGGT | 1.03
GTTTGTTCTT | 0.981
TTATGCGTTA | 0.947
GCGGTACCAT | 0.984
TCGTGATGGT | 1.04
ATCACTAGTC | 1.02
GGCTGAAATG | 0.998
TTAATTATT | 1.01
AGGAGATCTT | 0.972
GATGTTTTGC | 1.02
CGTAGCTTCT | 1.11
ATGTATATCC | 1.03
GGTCACGATC | 0.946
CCTAATCCAG | 1.04
TTGTCGTAGG | 0.953
AGAAAATGGT | 0.994
TCGCTGGAAA | 0.962
GTCCCCGATG | 1.08
CAAGAGGTGT | 1.06
TCAGTAGGGT | 0.987
CACTGTTGCG | 0.983
CGTGGTCT | 0.987
ACATGAGTAC | 1.04
CCATTTAGAT | 1.03
TTCTTCGTCG | 0.966
CTAGGGGTAA | 0.969

Sequence | switch fluorescence ratio
GAACTTCCT | 1.93
TTCGGGCCTG | 1.03
AACGGCCACA | 1.1
TCGGTATGTT | 0.98
GACACCTTTT | 1.06
TCATACCTGA | 1.01
AGAAAATGGG | 1.01
GGTAAGTACG | 1.2
TTACATCTCC | 1.08
TGAGGACGGG | 1
ACAACCATTT | 1.05
TGGGCCAGT | 1.01
TAGCCTGGGT | 0.999
TTTTGCTCTG | 0.978
TTGGGGATCC | 0.973
AGTCTGTGGG | 1.01
ATTGCGATAA | 1.05
TGGACCCGTT | 1
ATTCCACACA | 1.08
TCGAACTTAT | 1.02
AAGACTAA | 0.994
TGCCTTACAG | 1.02
AATATGTTAC | 1.06
TGGCCATAAT | 1.02
GACGGCAAAC | 1.3
TGAAGCGTGG | 0.989

Sequence | switch fluorescence ratio
TGCGTTTCGG | 1.02
CAGGTCAAAA | 1.02
ACTACGGGCT | 1.17
TGTATCACTG | 0.994
GCGACAACGT | 1
TTGGTACTTG | 0.979
TTAAGCCGGG | 1.04
ACAAGATCAG | 1.02
TCGCGGCGTC | 1.09
CAAATTAGTA | 0.976
GCTCAGTAAG | 1.06
GGTAACGGA | 1.07
CTGGCCGGAT | 1.07
CATGAATGG | 1.03
TGAAAAACAG | 1.06
ATAGCTGCAG | 1.02
TCATGATTA | 1.01
TGCATATAGT | 1.07
AATTTCAGGG | 1.02
CGAAATTCA | 0.971
GCTCTGGAAT | 1.07
AGAATCCAAC | 1.02
CTTGGTTCTT | 0.966
CAGCGATCAC | 3.57
AAGCGACTGG | 0.997
CCAACTCAGA | 1.06

Sequence | switch fluorescence ratio
CACGAAAGAA | 1.01
TGGGTTGGAA | 1.05
GGTAGGCGTT | 1.06
GGCAGGTGGG | 1.1
TTGTGAGTTA | 1.01
AGAGATCGCG | 1.01
ATACAAGTGG | 1.01
CAGTATCCA | 0.974
CATGCCGCGA | 2.17
GATGAGCGAC | 0.98
CACTACATAG | 1.08
GATGTAATTA | 1.02
GATCACCTAT | 0.985
GCTAGGCCGA | 1.02
GGTGTTGCGA | 0.978
GCGTTCAGTG | 0.974
CTAGGGTGCA | 0.956
GCTACGATCT | 0.988
TCGGACTTTG | 0.919
CTTGTAAATG | 1.06
GCTGGGATGG | 0.984
ACGGTGAAAA | 0.962
TAAGTCCATT | 1.01
CGCCAGAGTG | 2.03
CACCCTATTG | 1.07
TCCAGTCATA | 0.999

Sequence | switch fluorescence ratio
TATTGTCAGG | 0.994
CGTTAAAACA | 1.1
AAGACAATCA | 0.989
ACGGTGAACT | 1.06
TAATGGTTC | 0.947
GGGCTGTTCA | 0.972
AGGCTAATTA | 0.985
ATGTTAACAT | 0.99
ATTTGAGGC | 1.01
GAACAGGGAC | 1.02
TTAAGAAGGT | 0.961
CGCATAGTAT | 1.08
GTTGAGGTGC | 0.965
AGGCAGGACC | 1.07
ACGGTGGGT | 0.95
ATCACAAAAG | 0.965
TTGCGTGTAC | 1.03
AACAACGCCT | 1.09
TAAACGTTGC | 1.62
TACTGCCAT | 1.11
GCTCAACTGC | 1.03
TGTCTGAACT | 0.992
CAGGCCGGCA | 0.988
GTCCATCTGA | 1
AGCTTCTCTG | 1.09
AGGAAATTAA | 1.04

Sequence | switch fluorescence ratio
TTAGAAAAGC | 0.986
GCCAGGAAGG | 0.996
GCACACCATG | 1.08
AATGCAGTTT | 0.948
AGGTCTCCAG | 0.982
CCGGACCTCG | 0.992
TATTTATATA | 1.04
TATAATCCTA | 1.01
GAGTCCGTTC | 1.26
TACCTCGCGG | 1.03
TCGAGGGAAT | 1.76
CAGTGGAACT | 1.01
GACGTTGATG | 0.962
CATTCATCAA | 1.02
TACCCAGCC | 1.14
TACAGTTT | 1.01
CTAATGGTCA | 0.959
AGGGAAAGA | 1
GTTATATGAA | 0.923
CGGAAGTAGC | 1.06
AAGCGCCAAC | 1.1
GTTGGAACCT | 1.09
CTGGAGTCA | 1.27
TTGCCCTCAC | 0.998
ATACACTCAG | 1.07
CTAGGGGTTA | 0.969

Sequence | switch fluorescence ratio
GAGCGTATAG | 1.05
CTTCTCTTAA | 0.97
TGCATTGGGT | 1.02
CCAAGTGACG | 0.971
TGATACGTGA | 1.03
CTCAGGGCCA | 1.01
CGGTACTTAG | 1.07
CCGGCGTCGG | 1.06
TTCTTGAACG | 1.07
GGAACTTT | 0.962
ATCGAAGTG | 1.02
TACTCAACGC | 1.23
TTGATGTGTG | 1
AGGTCAACGA | 0.994
CGTGCACTTT | 0.961
AAGCGTATTA | 0.995
GAAATGTTAC | 1.14
TTTCACACTG | 1.01
GATGGAACGA | 1.04
